From the supplement of paper PMC6135742
Counter-ions that a name gives are not always drawn. ± gives the standard deviation of the averaged measurements. Whole data set: some 2,600 compounds, median “total cell number (DAPI+ nuclei) relative to DMSO vehicle control” near -1.4, cut for the lowest 2% near -23. The list shows a part of the results.

The compounds below were run on jimpy (Plp1 jimpy) mouse iPSC-derived oligodendrocyte progenitor cells (assay: total cell number (DAPI+ nuclei) relative to DMSO vehicle control (SDs above negative control mean); higher = more surviving cells). Details: 10 µM; 3 days.
With `O=c1[nH]cnc2c1ncn2[C@@H]1O[C@H](CO)[C@@H](O)[C@H]1O` [Inosine] the total cell number was -1.07.
`CCOc1ccccc1OC(c1ccccc1)C1CNCCO1` (stereo not drawn) [Reboxetine mesylate] showed a total cell number of -4.13.
In the case of `COc1cc([C@@H]2c3cc4c(cc3[C@@H](O[C@@H]3O[C@@H]5CO[C@@H](c6cccs6)O[C@H]5[C@H](O)[C@H]3O)[C@H]3COC(=O)[C@H]23)OCO4)cc(OC)c1O` [Teniposide], the total cell number is reported as -16.6.
With `COC1CCN(C(=O)c2cc(Cc3n[nH]c(=O)c4ccccc34)ccc2F)CC1` the total cell number was -5.07.
For `c1cncc(CN2CCC(n3ncc4c(N5CCOCC5)nc(-c5ccc6[nH]ccc6c5)nc43)CC2)c1`, the total cell number was -10.5.
With `Nc1ccc(S(=O)(=O)Nc2ccccn2)cc1` [Sulfapyridine] the total cell number was -0.402.
In the case of `O=C(O)[C@H]1O[C@@H](Oc2cc3oc(-c4ccccc4)cc(=O)c3c(O)c2O)[C@H](O)[C@@H](O)[C@@H]1O` [Baicalin], the total cell number is reported as -0.866.
With `N[C@@H](Cc1ccc(O)c(I)c1)C(=O)O` [3-Iodo-L-tyrosine] the total cell number was -2.23.
`Cc1[nH]c2ccccc2c1CCNCc1ccc(/C=C/C(=O)NO)cc1` [Panobinostat (LBH589)] was tested, and the total cell number was -20.7.
`Nc1ncnc2c1ncn2C1CCCO1` (stereo not drawn) showed a total cell number of -0.79.
Compound `Nc1ccn([C@@H]2O[C@H](CO)[C@@H](O)[C@@H]2O)c(=O)n1` [Cytosine-1-beta-D-arabinofuranoside hydrochloride] has a total cell number of -5.95.
With `Nc1ccn([C@@H]2O[C@H](CO)[C@@H](O)[C@@H]2O)c(=O)n1` [Cytarabine] the total cell number was -6.97.
Work on `Cc1ccc2c(=O)c3cccc(CC(=O)O)c3oc2c1C` [DMXAA (Vadimezan)] yielded a total cell number of -1.58.
`C[C@H]1O[C@@H](Oc2c(-c3cc(O)c(O)c(O)c3)oc3cc(O)cc(O)c3c2=O)[C@@H](O)[C@@H](O)[C@@H]1O` [Myricitrin] was tested, and the total cell number was -0.368.
`N[C@@]1(C(=O)O)CS(=O)(=O)[C@H]2[C@H](C(=O)O)[C@H]21` showed a total cell number of -0.639.
`C=C1/C(=C\C=C2/CCC[C@]3(C)[C@@H]([C@H](C)/C=C/[C@H](C)C(C)C)CC[C@@H]23)C[C@@H](O)C[C@@H]1O` [Doxercalciferol] showed a total cell number of 4.08.
For `CC(C)(C)c1ccc(C(O)CCCN2CCC(C(O)(c3ccccc3)c3ccccc3)CC2)cc1` (stereo not drawn) [Terfenadine], the total cell number was -10.6.
`CCCCN1CCCCC1C(=O)Nc1c(C)cccc1C` (stereo not drawn) [Bupivacaine HCl] gave a total cell number of -1.39.
For `CCOC(=O)c1c(CSc2ccccc2)n(C)c2cc(Br)c(O)c(CN(C)C)c12` [Arbidol HCl], the total cell number was -4.97.
`CCN1CCN(Cc2ccc(-c3cc4c(N[C@H](C)c5ccccc5)ncnc4[nH]3)cc2)CC1` showed a total cell number of -17.3.
With `Cc1nc(Nc2ncc(C(=O)Nc3c(C)cccc3Cl)s2)cc(N2CCN(CCO)CC2)n1` [Dasatinib] the total cell number was -22.6.
For `Cc1cc(Nc2nc(N[C@@H](C)c3ccc(F)cc3)c(C#N)cc2F)n[nH]1`, the total cell number was -12.8.
In the case of `Cc1nc(-c2ccc(OCC(C)C)c(C#N)c2)sc1C(=O)O` [Febuxostat], the total cell number is reported as 4.88.
With `CC(C(=O)O)c1ccc2c(c1)CC(=O)c1ccccc1S2` (stereo not drawn) [Zaltoprofen] the total cell number was -0.852.
For `Oc1cc2c(cc1O)[C@@H]1c3ccc(O)c(O)c3OC[C@]1(O)C2` [Hematoxylin], the total cell number was -1.72.
Work on `CN(C)c1ccc(C(=C2C=CC(=[N+](C)C)C=C2)c2ccc(N(C)C)cc2)cc1` [Crystal Violet] yielded a total cell number of -17.9.
`CC(=O)[C@H]1CC[C@H]2[C@@H]3CC=C4C[C@@H](O)CC[C@]4(C)[C@H]3CC[C@]12C` [Pregnenolone] showed a total cell number of -4.76.
In the case of `COc1ccc(CC2c3cc(OC)c(OC)cc3CC[N+]2(C)CCC(=O)OCCCCCOC(=O)CC[N+]2(C)CCc3cc(OC)c(OC)cc3C2Cc2ccc(OC)c(OC)c2)cc1OC` (stereo not drawn) [Atracurium Besylate], the total cell number is reported as -3.76.
`C/C(=C\c1ccc(C(=O)O)cc1)c1ccc2c(c1)C(C)(C)CCC2(C)C` [TTNPB (Arotinoid Acid)] was tested, and the total cell number was 0.197.
Work on `Nc1ccc(CCNc2ncnc3c2ncn3C2OC(CO)C(O)C2O)cc1` (stereo not drawn) [N6-2-(4-Aminophenyl)ethyladenosine] yielded a total cell number of -1.4.
`COc1ccc(-c2ccc3c(N4CCOCC4)nc(N4C[C@@H](C)O[C@@H](C)C4)nc3n2)cc1CO` showed a total cell number of -6.43.
`OC(CN1CCN(c2cccc(Cl)c2)CC1)C(c1ccccc1)c1ccccc1` (stereo not drawn) showed a total cell number of -3.86.
`COc1cc(OC)c(/C=C/S(=O)(=O)Cc2ccc(OC)c(NCC(=O)O)c2)c(OC)c1` gave a total cell number of -13.9.
`CN(C)[C@@H]1C(O)=C(C(N)=O)C(=O)[C@@]2(O)C(O)=C3C(=O)c4c(O)cccc4[C@@](C)(O)[C@H]3[C@H](O)[C@@H]12` [Oxytetracycline (Terramycin)] was tested, and the total cell number was 1.13.
Work on `NC1C=CC=C(C(=O)O)C1` (stereo not drawn) [Gabaculine hydrochloride] yielded a total cell number of 0.602.
For `CC(C)(Sc1ccc(CCN(CCCCC2CCCCC2)C(=O)NC2CCCCC2)cc1)C(=O)O`, the total cell number was -1.49.
`CSc1ccc2c(c1)N(CCC1CCCCN1C)c1ccccc1S2` (stereo not drawn) [Thioridazine hydrochloride] showed a total cell number of -6.49.
In the case of `Nc1nc(OCc2ccccc2)c2nc[nH]c2n1` [O6-benzylguanine], the total cell number is reported as -3.83.
Compound `CC1=C(/C=C/C(C)=C/C=C/C(C)=C\C(=O)O)C(C)(C)CCC1` [Isotretinoin] has a total cell number of -3.31.
Work on `CC1=C(/C=C/C(C)=C/C=C/C(C)=C\C(=O)O)C(C)(C)CCC1` [13-cis-retinoic acid] yielded a total cell number of -2.92.
With `CC/C(=C(/CC)c1ccc(O)cc1)c1ccc(O)cc1` [Diethylstilbestrol] the total cell number was 0.384.
`NC(N)=Nc1nc(CSCC/C(N)=N/S(N)(=O)=O)cs1` [Famotidine] was tested, and the total cell number was -0.923 ± 0.22.
For `CC[N+](CC)(CC)CC(=O)Nc1c(C)cccc1C` [Lidocaine N-ethyl bromide quaternary salt], the total cell number was -0.573.
For `Cc1ccc([N+](=O)[O-])cc1S(=O)(=O)N(C)/N=C/c1cnc2ccc(Br)cn12`, the total cell number was -25.8.
With `COc1cc(NC(C)CCCN)c2ncccc2c1` (stereo not drawn) [Primaquine Diphosphate] the total cell number was -13.1.
For `COCCOc1cc2ncnc(Cl)c2cc1OCCOC`, the total cell number was -0.904.
Compound `CC(=O)CC/C=C(\C)CC/C=C(\C)CC/C=C(\C)CCC=C(C)C` [Geranylgeranylacetone] has a total cell number of 0.798.
In the case of `C=CCn1c(=O)c2c(nc(-c3ccc(S(=O)(=O)O)cc3)n2C)n(C)c1=O` [1-Allyl-3,7-dimethyl-8-p-sulfophenylxanthine], the total cell number is reported as -0.241.
